The list shows a part of the results. Single values are uncertain, as repeats are few or missing.

The text below walks through data of the supplement of paper PMC4604168 (melanoma cell lines).
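Note: cells treated in 1,536-well plates, then fixed and DAPI-stained, with nuclei counted from automated high-throughput microscope images.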

This assay has as its system COLO800. Briefly: cell count relative to DMSO control; melanoma cells; higher = more viable cells. Conditions: library dose: standard library concentration; 72 h; first compound 2 µM.
`Cn1sc(=O)n(Cc2ccccc2)c1=O` + C=CCn1c(=O)c2cnc(Nc3ccc(N4CCN(C)CC4)cc3)nc2n1-c1cccc(C(C)(C)O)n1 [MK1775] (partner dose 0.1 µM) displayed a cell count of 28.8%.

`C[C@@H](N)c1ccc(C(=O)Nc2ccnc3[nH]ccc23)cc1` + CCN(CC)CCNC(=O)c1c(C)[nH]c(/C=C2\C(=O)Nc3ccc(F)cc32)c1C [sunitinib] (partner dose 2 µM) yielded a cell count of 67.3%. Turning to `CCCCCCCCCCCCCCCCCCOP(=O)([O-])OC1CC[N+](C)(C)CC1` [Perifosine] + Cn1cc(/C=C2\C(=O)Nc3cccnc32)c2ccccc21 [GW441756] (partner dose 2 µM), the cell count was determined as 100%. Then `Cn1sc(=O)n(Cc2ccccc2)c1=O` + COc1cc2ncnc(Nc3ccc(Oc4ccccc4)cc3)c2cc1OC [SrcI1] (partner dose 10 µM), with 53.4%; and `Cn1sc(=O)n(Cc2ccccc2)c1=O` + O=C(O)[C@@H]1[O][Sb](=[O])([O][Sb]2(=[O])[O][C@H]([C@H](O)CO)[C@H](O)[C@H](C(=O)O)[O]2)[O][C@H]([C@H](O)CO)[C@@H]1O [stibogluconate] (partner dose 10 µM), with 28.5%; and `C[C@@H](N)c1ccc(C(=O)Nc2ccnc3[nH]ccc23)cc1` + O=C(O)[C@@H]1[O][Sb](=[O])([O][Sb]2(=[O])[O][C@H]([C@H](O)CO)[C@H](O)[C@H](C(=O)O)[O]2)[O][C@H]([C@H](O)CO)[C@@H]1O [stibogluconate] (partner dose 10 µM), with 115%. Then `CCCCCCCCCCCCCCCCCCOP(=O)([O-])OC1CC[N+](C)(C)CC1` [Perifosine] + Cc1cc([N+](=O)[O-])ccc1NS(=O)(=O)c1cc(Cl)ccc1Cl [FH535] (partner dose 5 µM), with 75.6%; and `Cn1sc(=O)n(Cc2ccccc2)c1=O` + CCc1ccc(CCOc2ccc(CC3SC(=O)NC3=O)cc2)nc1 [pioglitazone] (partner dose 10 µM), with 97.8%; and `CCCCCCCCCCCCCCCCCCOP(=O)([O-])OC1CC[N+](C)(C)CC1` [Perifosine] + Oc1nc(-c2ccc(C(F)(F)F)cc2)nc2c1CSCC2 [XAV939] (partner dose 10 µM), with 107%. The figure for `CCCCCCCCCCCCCCCCCCOP(=O)([O-])OC1CC[N+](C)(C)CC1` [Perifosine] + Cc1ccc(Nc2nccc(N(C)c3ccc4c(C)n(C)nc4c3)n2)cc1S(N)(=O)=O [Pazopanib] (partner dose 2 µM) is 91.1%.

For the compound `CCCCCCCCCCCCCCCCCCOP(=O)([O-])OC1CC[N+](C)(C)CC1` [Perifosine] + c1cc(-c2cnn3cc(-c4ccc(OCCN5CCCCC5)cc4)cnc23)ccn1 [Dorsomorphin] (partner dose 2 µM), the cell count was 79.3%.

Turning to `C[C@@H](N)c1ccc(C(=O)Nc2ccnc3[nH]ccc23)cc1` + COc1cc2ncnc(Nc3ccc(Oc4ccccc4)cc3)c2cc1OC [SrcI1] (partner dose 10 µM), the cell count came out at 136%.

In the case of `C[C@@H](N)c1ccc(C(=O)Nc2ccnc3[nH]ccc23)cc1` + COCC[n+]1c2c(n(Cc3cnccn3)c1C)C(=O)c1ccccc1C2=O [YM155] (partner dose 0.002 µM), the cell count worked out at 25.2%. Then `CCCCCCCCCCCCCCCCCCOP(=O)([O-])OC1CC[N+](C)(C)CC1` [Perifosine] + O=c1cc(-c2cccc3c2Sc2ccccc2S3)oc(N2CCOCC2)c1 [KU55933] (partner dose 5 µM), with 105%. Then `C[C@@H](N)c1ccc(C(=O)Nc2ccnc3[nH]ccc23)cc1` + Cc1cc([N+](=O)[O-])ccc1NS(=O)(=O)c1cc(Cl)ccc1Cl [FH535] (partner dose 5 µM), with 75.7%; and `CCCCCCCCCCCCCCCCCCOP(=O)([O-])OC1CC[N+](C)(C)CC1` [Perifosine] + CCN(CC)CCCCNc1ncc2cc(-c3cc(OC)cc(OC)c3)c(NC(=O)NC(C)(C)C)nc2n1 [PD173074] (partner dose 0.5 µM), with 72%; and `C[C@@H](N)c1ccc(C(=O)Nc2ccnc3[nH]ccc23)cc1` + c1cc(-c2cnn3cc(-c4ccc(OCCN5CCCCC5)cc4)cnc23)ccn1 [Dorsomorphin] (partner dose 2 µM), with 101%. Then `C[C@@H](N)c1ccc(C(=O)Nc2ccnc3[nH]ccc23)cc1` + Nc1nc(F)nc2c1ncn2[C@@H]1O[C@H](CO)[C@@H](O)[C@@H]1O [fludarabine] (partner dose 1 µM), with 71.2%; and `C[C@@H](N)c1ccc(C(=O)Nc2ccnc3[nH]ccc23)cc1` + CN(NC(=O)CC(=O)NN(C)C(=S)c1ccccc1)C(=S)c1ccccc1 [STA4783] (partner dose 0.03 µM), with 28.4%. `CCCCCCCCCCCCCCCCCCOP(=O)([O-])OC1CC[N+](C)(C)CC1` [Perifosine] + COc1cc2ncnc(Nc3ccc(Oc4ccccc4)cc3)c2cc1OC [SrcI1] (partner dose 10 µM) returned a cell count of 162%. The figure for `CCCCCCCCCCCCCCCCCCOP(=O)([O-])OC1CC[N+](C)(C)CC1` [Perifosine] + Cc1cc(Nc2cc(N3CCN(C)CC3)nc(/C=C/c3ccccc3)n2)n[nH]1 [ENMD2076] (partner dose 0.2 µM) is 76.1%; for `C[C@@H](N)c1ccc(C(=O)Nc2ccnc3[nH]ccc23)cc1` + O=c1cc(-c2cccc3c2Sc2ccccc2S3)oc(N2CCOCC2)c1 [KU55933] (partner dose 5 µM) it is 66%.

In turn, `Cn1sc(=O)n(Cc2ccccc2)c1=O` + O=c1cc(-c2cccc3c2Sc2ccccc2S3)oc(N2CCOCC2)c1 [KU55933] (partner dose 5 µM) gave a cell count of 54.2%. `CCCCCCCCCCCCCCCCCCOP(=O)([O-])OC1CC[N+](C)(C)CC1` [Perifosine] + O=C1NC(=O)/C(=C/c2ccc(-c3ccc(F)cc3O)o2)S1 [AS252424] (partner dose 5 µM): the cell count was found to be 103%. Then `Cn1sc(=O)n(Cc2ccccc2)c1=O` + Oc1cc(-c2nc(-c3ccccc3)[nH]c2-c2ccncc2)ccc1Cl [L779450] (partner dose 1 µM), with 65.2%. Then `Cn1sc(=O)n(Cc2ccccc2)c1=O` + Oc1nc(-c2ccc(C(F)(F)F)cc2)nc2c1CSCC2 [XAV939] (partner dose 10 µM), with 45.8%.

In turn, `Cn1sc(=O)n(Cc2ccccc2)c1=O` + COc1ccc(C2=N[C@@H](c3ccc(Cl)cc3)[C@@H](c3ccc(Cl)cc3)N2C(=O)N2CCNC(=O)C2)c(OC(C)C)c1 [Nutlin-3] (partner dose 0.5 µM) displayed a cell count of 64.9%. The figure for `Cn1sc(=O)n(Cc2ccccc2)c1=O` + CCN(CC)CCCCNc1ncc2cc(-c3cc(OC)cc(OC)c3)c(NC(=O)NC(C)(C)C)nc2n1 [PD173074] (partner dose 0.5 µM) is 98%. Then `C[C@@H](N)c1ccc(C(=O)Nc2ccnc3[nH]ccc23)cc1` + NC(=O)c1ccc(N(C(N)=O)c2c(F)cccc2F)nc1-c1ccc(F)cc1F [VX702] (partner dose 2 µM), with 97.1%; and `CCCCCCCCCCCCCCCCCCOP(=O)([O-])OC1CC[N+](C)(C)CC1` [Perifosine] + Oc1cc(-c2nc(-c3ccccc3)[nH]c2-c2ccncc2)ccc1Cl [L779450] (partner dose 1 µM), with 100%; and `Cn1sc(=O)n(Cc2ccccc2)c1=O` + COc1ccc2c(c1)CCC1C2CCC2(C)C(NCCCCCCN3C(=O)C=CC3=O)CCC12 [U73122] (partner dose 2 µM), with 61.5%.

In turn, `CCCCCCCCCCCCCCCCCCOP(=O)([O-])OC1CC[N+](C)(C)CC1` [Perifosine] + C[C@]1(O)C[C@@H](c2nc(-c3ccc4ccc(-c5ccccc5)nc4c3)c3c(N)nccn32)C1 [OSI906] (partner dose 2 µM) displayed a cell count of 48.1%. Then `Cn1sc(=O)n(Cc2ccccc2)c1=O` + Cn1cc(/C=C2\C(=O)Nc3cccnc32)c2ccccc21 [GW441756] (partner dose 2 µM), with 41.6%; and `CCCCCCCCCCCCCCCCCCOP(=O)([O-])OC1CC[N+](C)(C)CC1` [Perifosine] + O=C(O)C(=O)Nc1sc2c(c1C(=O)O)CCNC2 [TCS401] (partner dose 8.33333 µM), with 80.9%. As to `CCCCCCCCCCCCCCCCCCOP(=O)([O-])OC1CC[N+](C)(C)CC1` [Perifosine] + NCC(=O)Nc1ccc(-n2nc(C(F)(F)F)cc2-c2ccc3c(ccc4ccccc43)c2)cc1 [OSU03012] (partner dose 5 µM), the cell count amounted to 61.6%. Then `Cn1sc(=O)n(Cc2ccccc2)c1=O` + CN1CCN(c2ccc3nc(-c4c(N)c5c(F)cccc5[nH]c4=O)[nH]c3c2)CC1 [Dovitinib] (partner dose 0.5 µM), with 44.6%; and `Cn1sc(=O)n(Cc2ccccc2)c1=O` + COC(=O)c1sccc1S(=O)(=O)Nc1ccc(Nc2ccccc2)cc1OC [GSK0660] (partner dose 5 µM), with 26.2%. Turning to `Cn1sc(=O)n(Cc2ccccc2)c1=O` + N#Cc1c(O)c2c(-c3ccc(-c4ccccc4O)cc3)csc2[nH]c1=O [A769662] (partner dose 10 µM), the cell count came out at 94.2%. The figure for `C[C@@H](N)c1ccc(C(=O)Nc2ccnc3[nH]ccc23)cc1` + Cc1cc(Nc2cc(N3CCN(C)CC3)nc(/C=C/c3ccccc3)n2)n[nH]1 [ENMD2076] (partner dose 0.2 µM) is 63.3%.
